In all, about 2,200 compounds went through this assay and fewer than 10 were called active. The list shows a part of the results. Entries without a call are filed as inconclusive in the source.
Each compound was assayed against GTPase KRas (Homo sapiens) (UniProt P01116) (assay: Cysteine mutants labelled by reactive fragments (mass read-out) (AID 2202238)). Conditions: KRAS G12D cysteine mutants, disulfide tethering, MALDI-TOF labeling; stronger effect = higher value; H27C mutant labeling; fragment at 500 µM.
Chain of UniProt P01116 (P01116 whole entry, looked up, the tested form may be a part): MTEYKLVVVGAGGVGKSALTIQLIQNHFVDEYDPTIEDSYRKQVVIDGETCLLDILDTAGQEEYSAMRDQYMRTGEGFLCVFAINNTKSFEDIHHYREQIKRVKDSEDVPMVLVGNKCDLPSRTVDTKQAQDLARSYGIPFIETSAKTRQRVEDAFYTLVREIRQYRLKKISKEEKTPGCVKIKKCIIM
Set-up: protein at 5 µM with 500 µM competing thiol for 1.5 h

SMILES | percent labeling
COc1cc2cc(C(=O)NCCS)[nH]c2cc1OC | 32.5%
Cn1c(CNC(=O)CCS)nnc1-c1ccccc1 | 33.8%
O=C(NCCS)C1(c2ccc(Br)cn2)CCC1 | 40.6%
O=C(CC1=NN(c2cccc(Cl)c2)C(=O)C1)NCCS | 9.2%
O=C1CN(Cc2occc2C(=O)NCCS)CCN1 | 24.5%
CC(C)Cc1cc(CNC(=O)CCS)no1 | 33.1%
COc1cc2c(c(OC)c1OC)CCN(C(=O)CCS)CC2 | 55.2%
O=C(CCS)NCc1nnc(N2CCCC2)o1 | 21.3%
O=C(CCS)NC1CCN(C(=O)c2ccccc2F)CC1 | 43.8%
O=C(NCCS)c1cnn(-c2ccc(F)cc2)c1-n1cccc1 | 23.1%
Cc1cc(C(=O)NCCS)c(C)n1C1CCCOC1 (stereo unspecified) | 16.4%
COc1c(Cl)cc(C(=O)NCCS)c2ncccc12 | 34.6%
O=C(CCS)NC1CCN(c2ccc(F)cc2)CC1 | 39.4%
CCc1cc2c(CC(=O)NCCS)csc2s1 | 16.6%
Cc1ccc(C(=O)NCCS)c(F)c1Br | 30.9%
Cc1cc(Oc2ccccc2)ccc1C(=O)NCCS | 22.5%
CC(=O)N(CCC(=O)NCCS)Cc1ccccc1 | 34.6%
CN(Cc1ccnc2ccccc12)C(=O)CCS | 35.4%
CC(C)(CNC(=O)CCS)c1ccc(F)cn1 | 28.5%
Cc1cc(NC(=O)CCS)c(C#N)cc1N(C)C | 35.4%
Cc1cccc(C(=O)NC2CC(NC(=O)CCS)C2)n1 (stereo unspecified) | 36.9%
O=C(CCS)Nc1cn[nH]c1-c1ccccn1 | 42.8%
O=C(CCS)NCCn1ccc(-c2ccccc2)n1 | 38.7%
Cc1nn(C)c(N2CCN(C(=O)CCS)CC2)c1C#N | 55.4%

SMILES | percent labeling
CC(C)c1ccc(NC(=O)CCS)cc1C(F)(F)F | 20.2%
Cc1nc(-c2ccncc2)[nH]c(=O)c1CCC(=O)NCCS | 29.4%
Cn1ccc(C(=O)NCCS)c1-c1ccccc1 | 37.6%
COc1ccc2c(n1)N(C)CCN2C(=O)CCS | 22.4%
O=C(CCS)N1CC(Oc2cccc(F)c2)C1 | 32.8%
O=C(NCCS)C1(Oc2ccc(Cl)cc2)CC1 | 26.3%
Cc1cc(C)n(-c2ccc(NC(=O)CCS)cc2Cl)n1 | 40.4%
CC1(C(=O)NCCS)CC(c2ccccc2)=NO1 (stereo unspecified) | 27.3%
CC(C)c1onc(-c2ccccc2)c1C(=O)NCCS | 28.3%
Cc1c(C(=O)NCCS)oc(=O)c2ccccc12 | 31.8%
O=C(CCS)Nc1ccc(OC(F)F)nc1 | 25%
COc1ncc(C(=O)NCCS)c(C(F)F)n1 | 39.4%
O=C(CNC(=O)c1cccc2[nH]ccc12)NCCS | 33.2%
O=C(CCS)NCCn1ccn2nccc2c1=O | 26.8%
O=C(NCCS)c1cccc2nc(C(F)F)sc12 | 40.4%
Cn1cc(C(=O)NCCS)c(-c2coc3ccccc23)n1 | 32.1%
O=C(CCS)Nc1ccc2nc[nH]c(=O)c2c1 | 51.1%
O=C(NCCS)C1(c2cccc(Br)c2)CCOCC1 | 28.8%
CC(C(=O)NCCS)N1CCC(Cc2ccccc2)CC1 (stereo unspecified) | 33.8%
O=C(CCS)Nc1cccc(Cn2nc3ccccn3c2=O)c1 | 31.6%
O=C(CCS)N1CCN(C(=O)Cc2cccc(F)c2)CC1 | 42.9%
Cc1cc(CN(C(=O)CCS)C2CC2)cc(S(N)(=O)=O)c1C | 41.4%
CC(C)c1noc(C2(NC(=O)CCS)CCOCC2)n1 | 35.2%
CC(C)c1nn(C)c2sc(C(=O)NCCS)cc12 | 38.7%

SMILES | percent labeling
O=C(NCCS)c1csc(-c2cc(Br)cs2)n1 | 27.5%
CCc1ncncc1C(=O)NCCS | 38%
O=C(NCCS)C1COCCN1CC(F)(F)F (stereo unspecified) | 30.5%
O=C(CCS)NCc1ccn(CC(F)F)n1 | 34.5%
O=C(NCCS)c1ccn(CCC(F)(F)F)n1 | 32.5%
Cc1nn(Cn2ccc(C(=O)NCCS)n2)c(C)c1Br | 43.8%
CNC(=O)c1cc(Oc2cccc(NC(=O)CCS)c2)ccn1 | 38.7%
COc1ccc([C@@H]2C[C@H]2CC(=O)NCCS)cc1 | 25.5%
CC(C)(C)c1csc(CC2(O)CC3CCC(C2)N3C(=O)CCS)n1 (stereo unspecified) | 34.2%
CC(O)C(NC(=O)c1cc(Cl)ccc1Cl)C(=O)NCCS (stereo unspecified) | 31.7%
O=C(NCCS)c1cc(Oc2ccccc2)ccn1 | 24.4%
Nc1nc(C2CC2)nc(N2CCN(C(=O)CCS)CC2)n1 | 51.4%
N#CCCN(CC1CCN(Cc2ccccc2)CC1)C(=O)CCS | 50.4%
COc1ccc2c(c1)CCCC2C(=O)NCCS (stereo unspecified) | 32.8%
O=C(CCS)N1CCC(O)(Cn2ccnn2)CC1 | 29.5%
O=C(CCNC(=O)c1cnccn1)NCCS | 21.1%
O=C(CCCN1C(=O)CCc2ccccc21)NCCS | 45.7%
COc1ccc(C)cc1-n1cc(C(=O)NCCS)ccc1=O | 42.4%
O=C1CC(C(=O)NCCS)(c2ccccc2)CN1 (stereo unspecified) | 32.2%
Cn1cc(CCC(=O)NCCS)c2ccccc21 | 19.7%
O=C(CCS)NCCc1ccc2ncccc2c1 | 33.3%
O=C(NCCS)C1(c2ccccc2)CC2(CCC2)C1 | 21.3%
O=C(CCS)NCC1CCN(C(=O)c2ccccc2)CC1 | 39.6%
CC(Cn1cccn1)(NC(=O)CCS)C(N)=O (stereo unspecified) | 23.5%

SMILES | percent labeling
O=C(CCS)NCc1cccc(-c2ccccn2)c1 | 44.1%
O=C(CCS)N1CCC(Oc2ccccc2Cl)CC1 | 53%
Cc1c(C(=O)NCCS)ccc2c1OC(F)(F)O2 | 25.3%
Cc1nc(-c2c[nH]c(C(=O)NCCS)c2)cs1 | 34.4%
O=C(NCCS)[C@@H]1OCC[C@@H]1Cn1cccn1 | 20.7%
CN(C(N)=O)c1cccc(NC(=O)CCS)c1 | 38.7%
O=C(CCS)Nc1cnn(C2CCCC2)c1 | 41.6%
CCc1nn(C)c(CC(=O)NCCS)c1Cl | 46.7%
CCCN1C(=O)c2ccccc2N2C(=O)CCC12C(=O)NCCS (stereo unspecified) | 33.7%
O=C(NCCS)c1cc(Br)c2c(c1)C(=O)NCCO2 | 47%
Cc1ccc(-c2nc(C)c(C(=O)NCCS)s2)c(F)c1 | 23%
O=C(CCCn1nnc(-c2ccccc2)n1)NCCS | 28.1%
COc1cccc(C2C(NC(=O)CCS)CCN2C2CC2)c1 (stereo unspecified) | 37.1%
O=C(CCS)NCC1CN(c2nncs2)CCO1 (stereo unspecified) | 38.7%
O=C(CCS)Nc1cccc2[nH]c(=O)ccc12 | 39.4%
O=C(NCCS)c1c(-n2cccc2)sc2c1CCC2 | 16.8%
O=C(CN1C(=O)C(F)(F)Oc2ccccc21)NCCS | 28.2%
O=C(NCCS)C(O)c1cccnc1 (stereo unspecified) | 35.8%
O=C(CCS)N1CCOc2cc(Br)c(F)cc21 | 33.1%
CC(C)(c1cccc(NC(=O)CCS)c1)C(F)(F)F | 25.9%
O=C(NCCS)c1cc2c(ccc3ccccc32)o1 | 17.6%
O=C(CCS)NC1CS(=O)(=O)C2CN(Cc3ccccc3)CC12 (stereo unspecified) | 33.8%
CCCC(NC(=O)c1cc2ccccc2s1)C(=O)NCCS (stereo unspecified) | 16.9%
Cc1ccc(CN(CCO)C(=O)CCS)o1 | 27.9%

SMILES | percent labeling
O=C(CCS)Nc1cccc(Cc2nc3cccc(Cl)c3s2)c1 | 22.9%
Cn1c(=O)n(CC(=O)NCCS)c2ccccc21 | 42.6%
O=C(CCS)N1C[C@@H]2C[C@H](C1)[C@@H]1CCCC(=O)N1C2 | 21.8%
Cn1cc(CNC(=O)CCS)c(=O)[nH]c1=O | 24.6%
Cc1cc(NC(=O)CCS)nn1CCC#N | 42.9%
O=C(NCCS)C1Cc2cc(Br)cnc2C1 (stereo unspecified) | 44.4%
O=C(NCCS)C1CCN(S(=O)(=O)c2ccc3[nH]c(=O)cnc3c2)CC1 | 23.3%
Cn1cc(C(C(=O)NCCS)N2CCOCC2)cn1 (stereo unspecified) | 29.4%
O=C(NCCS)c1ccnc(OC2CCOC2)c1 (stereo unspecified) | 37.7%
Cc1nc(-c2cc3c(s2)CCN(C(=O)CCS)C3)cs1 | 33.8%
O=C(NCCS)c1ccnc(-c2ccc(Cl)cc2)n1 | 31.3%
CCc1cc(=O)c2cc(NC(=O)CCS)ccc2[nH]1 | 37%
Cc1ccc(-c2c[nH]cc2C(=O)NCCS)s1 | 3.9%
O=C(CCS)NCc1cc2n(n1)CCCO2 | 33.9%
Cn1cc(S(=O)(=O)N2CCOCC2)cc1C(=O)NCCNC(=O)CCS | 27.2%
O=C(NCCS)c1cccc(OCc2cn3ccccc3n2)c1 | 30.7%
CC(C)c1n[nH]c(CC2CCN(C(=O)CCS)CC2)n1 | 40.6%
N#Cc1cccc(OCc2ccoc2C(=O)NCCS)c1 | 20.9%
O=C(CCS)NCc1nccn1CC(F)(F)F | 28.5%
Cc1ccnc(-c2n[nH]c(C(C)NC(=O)CCS)n2)c1 (stereo unspecified) | 36%
O=C(COc1ccc2ccccc2c1)NCCS | 18.1%
O=C(CCS)NC1(c2ccc(Br)s2)CC1 | 50.3%
COc1ccc2ccccc2c1CNC(=O)CCS | 34.9%
CC(=O)Nc1ccc(-c2csc(NC(=O)CCS)n2)cc1 | 35.8%

SMILES | percent labeling
O=C(NCCS)c1ccc(NC(=O)c2ccc(=O)[nH]c2)cc1 | 34.5%
CN(CC(=O)NCc1cccs1)C(=O)CCS | 32.2%
O=C(CCS)NCCc1cn2ccccc2n1 | 29.9%
O=C(CCS)NCc1cc(Cl)c2c(c1)OCO2 | 41.9%
Cn1cc(-c2nn(C)cc2C(=O)NCCS)cn1 | 32.3%
Cn1c(C(=O)NCCS)cc2cc(C(F)(F)F)ccc21 | 20.2%
O=C(NCCS)c1ccc(N2CCCC2)c(F)c1 | 25.2%
Cc1ccc(OCc2ccc(C(=O)NCCS)o2)cc1 | 30.2%
Cc1cnc(C(=O)NCCS)cn1 | 38.5%
COc1ccc(Cl)cc1C(=O)N1CCCC1C(=O)NCCS (stereo unspecified) | 33.6%
COCCn1c(CCN(C)C(=O)CCS)nc2ccccc21 | 38%
O=C(NCCS)C1CCCC2CC(O)CCC21 (stereo unspecified) | 33.1%
CCC(=O)Nc1ccc(OC)cc1NC(=O)CCS | 35.9%
O=C(NCCS)C1CCCN1Cc1ccc(Cl)cc1 (stereo unspecified) | 35.4%
O=C(CNC(=O)COc1ccccc1)NCCS | 28.8%
CN(C(=O)CCS)C1CCC(NC(=O)OC(C)(C)C)CC1 (stereo unspecified) | 42.6%
O=C(NCCS)c1ccn(-c2ncc(C(F)(F)F)cc2Cl)n1 | 25.6%
Cc1cc2c(N3CC(NC(=O)CCS)C3)nccn2n1 | 45.7%
CN1C(=O)C(C)(C)c2cc(C(=O)NCCS)ccc21 | 41.9%
CC(C)n1nc(NC(=O)CCS)cc1CO | 38.8%
Cn1nc2cc(Br)ccc2c1C(=O)NCCS | 39.1%

Source: PubChem BioAssay AID2202238 (Ras Initiative Chemistry Research Team, Frederick National …, 2025)
